Experimental data published in paper PMC7819943, “Rice protein-binding microarrays: a tool to detect cis-acting elements near promoter regions in rice”.
The list shows a part of the results.

These sequences were tested against T1, OsWOX13 (Oryza sativa, UniProt Q5QMM3 1-267) (assay: protein-binding microarray (RPBM); PBS, 2% BSA, 51.3 ng/ul salmon testes DNA, 50 uM zinc acetate, 200 nM TF, 25 C, 1 h; high values mean tight binding). Settings: protein: recombinant; tags: N-terminal polyhistidine and DsRed monomer fusion (pET32a); label: CyDye5-dUTP incorporated in the synthesized complementary strand; 3' TTTTT single-stranded linker to array surface; dsDNA, one strand shown.
T1 sequence: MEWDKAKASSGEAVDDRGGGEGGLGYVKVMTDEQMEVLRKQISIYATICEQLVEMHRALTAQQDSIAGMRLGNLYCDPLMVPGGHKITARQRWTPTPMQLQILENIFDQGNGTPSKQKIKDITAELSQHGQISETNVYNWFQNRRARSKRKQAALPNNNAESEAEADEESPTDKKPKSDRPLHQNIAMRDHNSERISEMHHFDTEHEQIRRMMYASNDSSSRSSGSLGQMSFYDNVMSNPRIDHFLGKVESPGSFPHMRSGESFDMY
Procedure, shortened: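 A custom Agilent array was converted to double-stranded form by primer extension with Cy5-dUTP and blocked with 2% BSA. Protein at 200 nM in PBS with 2% BSA, salmon testes DNA and 50 µM zinc acetate was applied for 1 h at 25 °C, followed by washing. The proteins were polyhistidine–DsRed N-terminal fusions of transcription factors, expressed in E. coli BL21-CodonPlus and Ni–NTA-purified. The binding signal is per-feature fluorescence intensity (arbitrary units) from an Axon 4000B scanner.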
With “GAGAAAATTTTCAAATGGATTGTGCATTACTTTCCAAAAGCGGAGTCACCTAGTGCAG” the binding signal was 4260 fluorescence intensity (a.u.).
In the case of “ATAAACAGACATCCTTCGAACTCCCAATCAGACCATCAGCCGGAGTCACCTAGTGCAG”, the binding signal is reported as 9970 fluorescence intensity (a.u.).
With “CTCATAACTATTTGAGTGACATGCAAATAACAAGAGAACACGGAGTCACCTAGTGCAG” the binding signal was 3200 fluorescence intensity (a.u.).
For “ATGTAATTTATGAAACTTACATTGTAACTTTTGAAGTTATCGGAGTCACCTAGTGCAG”, the binding signal was 21200 fluorescence intensity (a.u.).
With “TTAACTAATTATGCATTAATAAACCACCTTTCCAAGCACACGGAGTCACCTAGTGCAG” the binding signal was 36000 fluorescence intensity (a.u.).
For “TTGGTTGAAATTGGAATGATGTGATGGAAAAGTTGAAAGTCGGAGTCACCTAGTGCAG”, the binding signal was 4400 fluorescence intensity (a.u.).
“ATGAAGAATAAATATGATTAGTAGAGAAGAGAGATGATGTCGGAGTCACCTAGTGCAG” was tested, and the binding signal was 5490 fluorescence intensity (a.u.).
“AAAATGATAGATTTAATGCCAAATTTATTATAAAACTACACGGAGTCACCTAGTGCAG” was tested, and the binding signal was 19300 fluorescence intensity (a.u.).
For “CAACTTTTCTACATTGCAATCAATTAATTTAGCTCTACAACGGAGTCACCTAGTGCAG”, the binding signal was 7400 fluorescence intensity (a.u.).
In the case of “AGGATGGGTGTGGATGATTGAATATCTCTGTTCAGTGTTTCGGAGTCACCTAGTGCAG”, the binding signal is reported as 16000 fluorescence intensity (a.u.).
“CGAGTTAAATTTGACGAGGGATTAGATTTACACTCGATTTCGGAGTCACCTAGTGCAG” was tested, and the binding signal was 18700 fluorescence intensity (a.u.).
With “TGCAGTTATGGCATGATTGGTATCTAGTCGACGCAGAATTCGGAGTCACCTAGTGCAG” the binding signal was 17800 fluorescence intensity (a.u.).
With “CAAGAAAATTTTGTTTGATCAGACTTGTCAAGTAAAACAACGGAGTCACCTAGTGCAG” the binding signal was 4250 fluorescence intensity (a.u.).
In the case of “TCTGTGTTCTGCTGTTAATTAACTAACCTCAGACGACGTCCGGAGTCACCTAGTGCAG”, the binding signal is reported as 8270 fluorescence intensity (a.u.).
In the case of “CAAATGATTGTAATTTATGCATATTTCTCAGCAAAACTGACGGAGTCACCTAGTGCAG”, the binding signal is reported as 24900 fluorescence intensity (a.u.).
For “TAATAATTTAATAGAGAAAAGGTTATAGTTAATTGCTTGCCGGAGTCACCTAGTGCAG”, the binding signal was 24700 fluorescence intensity (a.u.).
For “TGCTGTTAATCAGATGCAATTTCTACAACTGAGCAGTTTCCGGAGTCACCTAGTGCAG”, the binding signal was 5020 fluorescence intensity (a.u.).
For “CCCATGATTTGAAGCCAAGCCAAACCCCACCCCACTCATACGGAGTCACCTAGTGCAG”, the binding signal was 24700 fluorescence intensity (a.u.).
With “AACAGACTATTAAGAAACTTAATTTACAGCTTCATTTTCTCGGAGTCACCTAGTGCAG” the binding signal was 6670 fluorescence intensity (a.u.).
“ACCAGGAGATTTAATTTGGTGCCACAATCGGGTTCCGACGCGGAGTCACCTAGTGCAG” was tested, and the binding signal was 4200 fluorescence intensity (a.u.).
For “ACCCCAGTAAATTACTAATTAACCCTTAATAATAAATGGTCGGAGTCACCTAGTGCAG”, the binding signal was 26000 fluorescence intensity (a.u.).
For “TTTGATTTGATTCGTGTGCTCCCCGCCGCCTTCGATCCCTCGGAGTCACCTAGTGCAG”, the binding signal was 43600 fluorescence intensity (a.u.).
For “TGCTATTGTTCCAATTAGATAAATGGTAATGACATATTTTCGGAGTCACCTAGTGCAG”, the binding signal was 3910 fluorescence intensity (a.u.).
In the case of “GTGATTGGAACAAATAGATGTACTTTTGATAGCAAGGAACCGGAGTCACCTAGTGCAG”, the binding signal is reported as 48700 fluorescence intensity (a.u.).
“CTTTGACAGCCTGTCGCCTGTCTCGCACGCTGCTTGCGGCCGGAGTCACCTAGTGCAG” was tested, and the binding signal was 14800 fluorescence intensity (a.u.).
In the case of “GTAGAAATAATTATATTGTGAGTGAGCTGAAATAAGAAACCGGAGTCACCTAGTGCAG”, the binding signal is reported as 4870 fluorescence intensity (a.u.).
With “GCAAATTGAGAAGAATTAACGCCAAAAGGAGAACTTGATTCGGAGTCACCTAGTGCAG” the binding signal was 17200 fluorescence intensity (a.u.).
“TGAATTAGATTGGAGCTATTGAGGGAGTCAAAGTGGGTTTCGGAGTCACCTAGTGCAG” was tested, and the binding signal was 22500 fluorescence intensity (a.u.).
With “TTTTGATTGACAGCGGAAATTACTCGATATTGTTCTTCAACGGAGTCACCTAGTGCAG” the binding signal was 64300 fluorescence intensity (a.u.).
“AGCTAATTAATCCAGCTTACTTAATTAACCTAATTAATCACGGAGTCACCTAGTGCAG” was tested, and the binding signal was 26300 fluorescence intensity (a.u.).
For “ATATCAAATAATTAGAATTGATGATGTTTCGAATCCAGGTCGGAGTCACCTAGTGCAG”, the binding signal was 24800 fluorescence intensity (a.u.).
For “GATAGATTTCCTTAATGTATTCGGAAACTATTCGTACACGCGGAGTCACCTAGTGCAG”, the binding signal was 4880 fluorescence intensity (a.u.).
With “TCTTATTCTAATTGCCATGACATGATGCCACCAATGTCCACGGAGTCACCTAGTGCAG” the binding signal was 16200 fluorescence intensity (a.u.).
In the case of “CCACCACCAATCATGCCCATTGCAGGCTTCCACCGCCCGCCGGAGTCACCTAGTGCAG”, the binding signal is reported as 4420 fluorescence intensity (a.u.).
“GATAATTTGGTCATTGCTAAAATATTTGGGAAAAGTTAGCCGGAGTCACCTAGTGCAG” was tested, and the binding signal was 23700 fluorescence intensity (a.u.).
In the case of “GTTATAGCGCATCTATCAATCGTACTAAATTTCATTGTCCCGGAGTCACCTAGTGCAG”, the binding signal is reported as 3250 fluorescence intensity (a.u.).
In the case of “CTCCATAATTATTAGAAGGACGTCCTCCAGCAACTCCGCCCGGAGTCACCTAGTGCAG”, the binding signal is reported as 16900 fluorescence intensity (a.u.).
“AAATGATTTCTGGCTAATTTGTTTCATTTGTAGCTGTTGACGGAGTCACCTAGTGCAG” was tested, and the binding signal was 26000 fluorescence intensity (a.u.).
For “TCACAGACAAATTAAAGCATACAGCAATTGATTCAGAGTACGGAGTCACCTAGTGCAG”, the binding signal was 4560 fluorescence intensity (a.u.).
With “TGGATTAATTAGGCTCAATAGATTCGTCTCACGAATTAGTCGGAGTCACCTAGTGCAG” the binding signal was 36500 fluorescence intensity (a.u.).
With “TTACTAATTTTACTATTGTGGATAAATTTTAGACGTCCAACGGAGTCACCTAGTGCAG” the binding signal was 7970 fluorescence intensity (a.u.).
For “ATTGATCAATCGATCAATCCCTCCTTCCCCATCCAATCCTCGGAGTCACCTAGTGCAG”, the binding signal was 4160 fluorescence intensity (a.u.).
In the case of “AAAGATTTAATTATTACGAACACAACGGTGTAATTAGATCCGGAGTCACCTAGTGCAG”, the binding signal is reported as 12300 fluorescence intensity (a.u.).
For “ATGATTATCAGAAAACCTAGACAACAGTATCCCGTTGGAACGGAGTCACCTAGTGCAG”, the binding signal was 7150 fluorescence intensity (a.u.).
For “ACTCACAGAACATAATTAGACATACATGTTAATTTGTTTCCGGAGTCACCTAGTGCAG”, the binding signal was 7860 fluorescence intensity (a.u.).
For “ATCAATCCAATAATATTAATTTTAGCAGATAAAGTTTAACCGGAGTCACCTAGTGCAG”, the binding signal was 4450 fluorescence intensity (a.u.).
With “ATCACAAAATTAGATAATCTATCGTATGTCCCGCCCCTAACGGAGTCACCTAGTGCAG” the binding signal was 6800 fluorescence intensity (a.u.).
With “GTCAGTGACAATAATCCATCAAATTAATGTTATAGCTGTTCGGAGTCACCTAGTGCAG” the binding signal was 3400 fluorescence intensity (a.u.).
“ACATTGACTTGATGTATAATTTATTAATTTCATGCAGTTCCGGAGTCACCTAGTGCAG” was tested, and the binding signal was 16800 fluorescence intensity (a.u.).
With “ATAAATTACACTTTAAGTACTTTAAGTGATAAAACAACTCCGGAGTCACCTAGTGCAG” the binding signal was 5130 fluorescence intensity (a.u.).
“CTCGTGATTTGCCGGCTGCGTGGACGACTTCGCCTCTCTTCGGAGTCACCTAGTGCAG” was tested, and the binding signal was 28800 fluorescence intensity (a.u.).
For “GAAAAGCTAATTGGTCTCTGGTATTGATTCTGTGTGCCGACGGAGTCACCTAGTGCAG”, the binding signal was 20900 fluorescence intensity (a.u.).
In the case of “GTTAATGGACTTTTAGTATATAATAGAAGATAGGTAAAGACGGAGTCACCTAGTGCAG”, the binding signal is reported as 8400 fluorescence intensity (a.u.).
In the case of “CTTATTTCTTAACCTGCAGTTAATTGCCTACCAGTAAGCACGGAGTCACCTAGTGCAG”, the binding signal is reported as 16000 fluorescence intensity (a.u.).
